Laboratory results reported in PubChem BioAssay AID651820 (National Center for Advancing Translational Sciences (NCATS), 2012).
Where “and” joins values, the source holds several entries; their conditions need not be identical. Identical values can stand only once. Among all 340,000 compounds or so, about 12,000 (3.5%) were called active. The shares of active, inactive and inconclusive entries below differ from those in the screen. Calls come from the whole dose curve; as a rule, active = well fitted inhibition curve with a large enough effect; inconclusive = small, poorly fitted or top-dose-only effect, or another doubt; inactive = no such curve, though single readings can be large or run the other way. A potency beside an inconclusive call is a rough fit, not a confirmed value.

Experiment: qHTS Assay for Inhibitors of Hepatitis C Virus (HCV)
Conditions: Huh7.5.1 HCVcc-Cre (HCVcc is cell-culture hepatitis C virus) infection, luciferase reporter, 44 h; activity change, negative = inhibition: at 41.8 µM (top of the series) unless noted
Outline: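 After 44 h co-culture of compound, cells and HCVcc-Cre (~0.5 moi), substrate is added for 15 min at room temperature and luciferase measured over 15 sec. Cells were seeded at 1,000/well and pre-cultured 4 h.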
% is set by controls: 0 for no effect and ±100 for the full control effect; potency is the fitted concentration of half-maximal effect; tags give direction and shape of the fitted curve.

| Structure (SMILES) | Potency | activity change, negative = inhibition |
| --- | --- | --- |
| Cc1ccc(-c2cnc(N)n2C)cc1C | inconclusive: 6.31 µM [inhibitor, partial curve] |  |
| COCCOc1ccc(C(F)(F)F)cc1NC(=O)CN1C(=O)NC2(CCc3ccccc32)C1=O (stereo not given) | inconclusive: 12.6 µM [inhibitor, partial curve] |  |
| O=c1oc2c(CN3CCOCC3)c(O)ccc2c2ccccc12 | inconclusive: 11.2 µM [inhibitor, single point] |  |
| O=C(NNC(=O)c1ccccc1[N+](=O)[O-])c1cccs1 |  | inactive: 2.02% |
| Cc1cc(-n2c(C)cc(C(=S)N3CCOCC3)c2C)ccc1Br | inconclusive: 10 µM [inhibitor, partial curve] |  |
| CC(=O)Nc1cc(ON=C(C)C)cc([N+](=O)[O-])c1 | inconclusive: 15.8 µM [inhibitor, single point] |  |
| Cc1nn(-c2ccc(F)cc2)c2c1cc(C#N)c1nc3ccccc3n12 | inconclusive: 3.55 µM [inhibitor, single point] |  |
| COc1ccc(C(CNC(=O)c2cccc(NS(=O)(=O)c3ccc(Br)cc3)c2)N(C)C)cc1 (stereo not given) | inconclusive: 31.6 µM [inhibitor, single point] |  |
| COc1ccc(Cc2nnc(NC(=O)C3CCCO3)s2)cc1 (stereo not given) |  | inactive: 24.2% |
| O=C(CCCOc1ccc(Cl)cc1Cl)N/N=C/c1cccc([N+](=O)[O-])c1 | inconclusive: 2.51 µM [inhibitor, full curve] |  |
| CN(c1cccc(NC(=O)CN(c2cccc(Cl)c2)S(=O)(=O)c2ccccc2)c1)S(C)(=O)=O | active: 11.2 µM |  |
| COc1ccc(C(CNC(=O)c2oc3ccc(OC)cc3c2C)N2CCCC2)cc1 (stereo not given) | inconclusive: 22.4 µM [inhibitor, single point] |  |
| CCOc1ccc(CCNC(=O)COC(=O)c2cccc(N(C)C)c2)cc1OCC | inconclusive: 31.6 µM [inhibitor, single point] |  |
| COc1ccc(-c2cc(C(=O)O)c3ccccc3n2)c(OC)c1 |  | inactive: 1.43% |
| Cc1nc2c(-c3ccccc3)cnn2c(N)c1-c1ccccc1 | inconclusive: 22.4 µM [inhibitor, single point] |  |
| CCOC(=O)CN1C(=O)N[C@@H](CCc2ccccc2)[C@@H](C(=O)OC)[C@H]1C |  | inactive: 17.1% |
| NC(=O)c1ccc(NC(=O)c2ccccc2S(=O)(=O)c2ccccc2[N+](=O)[O-])cc1 | inconclusive: 7.08 µM [inhibitor, partial curve] |  |
| Cc1csc(NC(=O)c2ccc(S(=O)(=O)N(C)c3ccccc3)cc2)n1 | inconclusive: 31.6 µM [inhibitor, single point] |  |
| O=C(COc1cccc(NC(=O)c2cccc([N+](=O)[O-])c2)c1)c1ccc(Br)cc1 | active: 14.1 µM |  |
| CCCCOC(=O)Nc1cc(C(=O)OC)ccc1C(=O)OC | inconclusive: 2.82 µM [inhibitor, full curve] |  |
| Cc1cc(Nc2c(C)n(C)n(-c3ccccc3)c2=O)n2c(nc3ccccc32)c1C#N | inconclusive: 2.82 µM [inhibitor, partial curve] |  |
| CCCn1c(SCC(=O)Nc2nnc(C(C)C)s2)nc2c1c(=O)n(C)c(=O)n2C | inconclusive: 22.4 µM [inhibitor, single point] |  |
| CC1CN(C(=O)N2c3ccccc3Sc3ccccc32)CC(C)O1 (stereo not given) | inconclusive: 31.6 µM [inhibitor, single point] |  |

| Structure (SMILES) | Potency | activity change, negative = inhibition |
| --- | --- | --- |
| Clc1ccc(CN2C3=NCCN3c3ccccc32)cc1Cl | active: 10 µM |  |
| CCOc1ccc(OCC)c(NC(=O)CN(C)S(=O)(=O)c2ccc3nc(C)sc3c2)c1 | inconclusive: 22.4 µM [inhibitor, single point] |  |
| O=C(O)CCCCCCCCc1cn(CCc2c[nH]c3ccccc23)nn1 |  | inactive: 18.3% |
| CN(C)CCCN(C(=O)c1ccc(Br)s1)c1nc2cc3c(cc2s1)OCCO3 | inconclusive: 11.2 µM [inhibitor, partial curve] |  |
| Cc1[nH]n2c(=O)cc(Cc3ccccc3)nc2c1C#N |  | inactive: 13.4% |
| CC(C)(C)OC(=O)N(CCc1ccccc1)Cc1ccccc1OCc1ccc(NC(=O)C2CCC2)cc1 | active: 0.562 µM |  |
| Cc1ccc(S(=O)(=O)N2[C@@H](c3ccc(Br)cc3)C(C(=O)O)=C[C@H]2C(C)(C)C)cc1 |  | inactive: 16% |
| CCCS/C(N)=N/N=C/c1cc(C)ccc1O | inconclusive: 5.62 µM [inhibitor, single point] |  |
| COc1ccc(CNc2ccc3c(c2)CCC3)cc1Br |  | inactive: -2.76% |
| Cc1cc(Nc2ccc(Cl)cc2)nc(N2CCOCC2)n1 | inconclusive: 3.16 µM [inhibitor, full curve, poor fit] |  |
| O=C(/C=C/c1ccc(S(=O)(=O)N2CCOCC2)cc1)NC(CO)C(O)c1ccc([N+](=O)[O-])cc1 (stereo not given) |  | inactive: 16.7% |
| C=C(C)CN=C1NN=C(c2cc(C)n(-c3ccc(C)cc3)c2C)CS1 | inconclusive: 11.2 µM [inhibitor, single point] |  |
| Cc1nc(S(=O)(=O)c2ccc(Cl)cc2)c(N(C)C)o1 |  | inactive: 9.14% |
| CCc1cccc(NC(=O)c2cccc3c2C(=O)N(C2CCCCC2)C3)c1 |  | inactive: 9.71% |
| CCOC(=O)c1ccc(/C=C2/C=C(c3ccccc3)N(c3ccc(Cl)c(C(=O)O)c3)C2=O)cc1 | inconclusive: 10 µM [inhibitor, single point] |  |
| CCOC(=O)c1ccc(NC(=O)N2CCN(c3ccccn3)CC2)cc1 | inconclusive: 31.6 µM [inhibitor, single point] |  |
| Cc1ccc(C(=O)N/C(=C\c2ccco2)C(=O)N2CCOCC2)cc1C |  | inactive: -9.86% |
| CCc1cc2c(NC3CCCC3)ncnc2s1 | active: 10 µM |  |
| CCSc1nc(-c2ccccc2)nc(C(Cl)Cl)n1 | inconclusive: 31.6 µM [inhibitor, single point] and inconclusive: 20 µM [inhibitor, single point] |  |
| O=[N+]([O-])c1ccc2nc(-c3ccccc3)cc(-c3ccccc3)c2c1 |  | inactive: 0.268% |
| N#CC(=C1SC=CS1)c1nc(-c2ccccc2)cs1 | inconclusive: 22.4 µM [inhibitor, single point] |  |
| Cc1ccc(C(=O)Oc2cccc(-n3cnnn3)c2)cc1 |  | inactive: 3.47% |
